Patent US20260009079A1, “BIOMARKERS OF PREGNANCY LOSS” (The University of Warwick, priority 2022, published 2026)

System: endometrial PLA2G2A/DIO2 ratios
Experiment: SIMPLANT trial: endometrial PLA2G2A/DIO2 ratios by RT-qPCR in paired baseline and second endometrial biopsies
Conditions: women with a history of 3 or more miscarriages, sitagliptin 100 mg daily for 3 consecutive cycles, n=15, Wilcoxon Matched Pairs Signed Ranks test, P=0.0052
Method: DIO2 and PLA2G2A transcripts were measured by RT-qPCR in paired baseline and second endometrial biopsies obtained from participants in the SIMPLANT trial (EudraCT Number 2016-001120-54) in the placebo (n=16) and sitagliptin (n=15) groups. The PLA2G2A/DIO2 ratios (bottom panel) were calculated. The data were analyzed using Wilcoxon Matched Pairs Signed Ranks test with Sidak correction
RNA was extracted from endometrial biopsies which had been placed in RNA Later in the clinic (<1 min after collection), using RNeasy plus Universal mini kit (QIAGEN) according to the manufacturer's instructions. Reverse transcription was performed from 1 μg RNA using the Quantitect Reverse Transcription Kit (QIAGEN) and cDNA was diluted to 10 ng/μl equivalent before use in qPCR. Amplification was performed on a QuantStudio 5 (ThermoFisher) in 10 μl reactions using 2×Quantifast SYBR Green RT-PCR Kit (QIAGEN), with 300 nM each of forward and reverse primers. Primer sequences were as follows: DIO2 forward: 5′-ACT CGG TCA TTC TGC TCA A-3′, DIO2 reverse: 5′-TTC CAG ACG CAG CGC AGT-3′, PLA2G2A forward 5′ AAAGGAAGCCGCACTCAGTT-3′, PLA2G2A reverse: 5′-TTT CCA GGG AAG AGG GGA C-3′. Centile calculations were performed on dCt values using R v3.5 software.
Details regarding methods and governance of the SIMPLANT clinical trial can be found in Tewary et al., 2020. […]

For `N[C@@H](CC(=O)N1CCn2c(nnc2C(F)(F)F)C1)Cc1cc(F)c(F)cc1F` [sitagliptin], which “endometrial PLA2G2A/DIO2 ratios before and after the trial” value is on record?
The value was “significantly improved”.
